According to PubChem BioAssay AID493208 (National Center for Advancing Translational Sciences (NCATS), 2011):
Out of some 44,000 compounds screened, about 340 (0.77%) were called active. Roughly 5% stayed inconclusive and do not appear here. Calls come from the whole dose curve; as a rule, active = well fitted inhibition curve with a large enough effect; inconclusive = small, poorly fitted or top-dose-only effect; inactive = flat fitted curve, though single readings scatter. The list shows a part of the results.

Experiment: Acumen qHTS Assay for Inhibitors of the mTORC1 Signaling Pathway in MEF (Tsc2-/-, p53-/-) Cells: Sytravon;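 note: plate controls were DMSO for no effect and rapamycin for full effect; nearly all actives have a fitted effect of over 50% in size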
Settings: phospho-rpS6 immunofluorescence/PI, 24 h; series mostly up to 38.3 µM; activity change, negative = inhibition: at the top concentration
Procedure, shortened: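 Compounds act on Tsc2-/-, p53-/- fibroblasts carrying an empty vector for 24 h before fixation and dual staining for phospho-S6 and DNA (propidium iodide). Values are percentages of cells above a rapamycin-defined pS6/PI threshold.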

Activity change, negative = inhibition, inactive:
CCn1c(C(=O)Nc2cc(Cl)ccc2C)cc2sc(Cl)cc21 -11.6%, CCOc1ccc(CCNC(=O)Cn2ncn3c(cc4ccccc43)c2=O)cc1OCC 1.38%, CCOC(=O)C(=O)Nc1c(C(=O)Nc2cccc(F)c2)oc2ccccc12 -3.48%, COc1ccccc1N1CCN(c2nc3c(S(=O)(=O)c4ccc(C)c(C)c4)nnn3c3ccc(Cl)cc23)CC1 -5.06%, CCN(CCCNC(=O)c1nn(-c2ccc(OC)c(Cl)c2)c(=O)c2c1c1ccccc1n2C)c1cccc(C)c1 0.586%, Cc1ccc(Cn2c(CNS(=O)(=O)c3ccc(Cl)s3)nc3cccnc32)cc1 -1.69%, Cc1cccc(-c2nc(SCC(=O)NCc3ccco3)c3c(=O)n(C)c(=O)n(C)c3n2)c1 -18.4%, Cc1cc2[nH]c(=O)c(=O)[nH]c2cc1S(=O)(=O)N1CCN(c2cccc(C)c2C)CC1 -7.68%, CCc1ccccc1Nc1cc(C(=O)NC2CCC(C)CC2)c2ccccc2n1 (centres undefined) -13.5%, COc1ccc(CNC(=O)c2cc(-c3ccc(C)c(C)c3)n[nH]2)cc1 -0.397%, CCc1c(C)sc(NC(=O)C2c3ccccc3Oc3ccccc32)c1C(=O)OC(C)C 5.68%, CCOC(=O)c1cccc(NC(=O)C2CCCN(c3nnc(C)c4c(C)n(-c5ccccc5)nc34)C2)c1 (centres undefined) -5.56%, O=C(Nc1cc(Cl)cc(Cl)c1)c1cc(S(=O)(=O)N2CCc3ccccc3C2)ccc1F -3.59%, COc1ccc(C(=O)Nc2c(C(=O)c3ccccc3)oc3ccccc23)cc1 -14.4%, COc1ccc(OC)c(C2C(C(=O)Nc3ccccc3OC)=C(C)Nc3c(C(=O)Nc4ccc(F)cc4)cnn32)c1 (centres undefined) -3.35%, Cc1ccc(-c2nnc3ccccc3c2C(=O)Nc2cccc(Cl)c2)cc1 -5.63%, Cn1c(=O)c(=O)n(C)c2cc(N3CCOCC3)c(NS(=O)(=O)c3ccc(F)c(Cl)c3)cc21 2.78%, COc1ccc(NC(=O)c2cc3cc(C)ccc3n2C)cc1 1.97%, CC(C)(C)OC(=O)N1CCC(c2c(C(=O)NCc3ccc4c(c3)OCO4)cnn2-c2ccccc2Cl)CC1 4.68%, COc1ccc(C(=O)Nc2nnc(S(=O)(=O)N(CC(C)C)c3ccccc3)s2)cc1 0%, COc1ccc(NC(=O)c2ccc3c(c2)nnn3C2CCCC2)cc1Cl -9.81%, Cc1ccc(Cn2c(C(=O)O)c(CNCc3cccs3)c3ccc(C)cc32)cc1 -3.46%, Cc1ccc(Cl)cc1NC(=O)c1ccc2snnc2c1 -1.22%, COc1cc(NC(=O)NCCn2nnc3cc(S(=O)(=O)N(C)C)ccc32)cc(OC)c1 5.45%, CCN(C(=O)c1cc(S(=O)(=O)N2CCc3ccccc32)cn1C)c1cccc(C)c1 7.74%, CC1=C(C(N)=O)C(c2ccc(F)cc2)n2nc(-c3ccc(N(C)C)cc3)nc2N1 (centres undefined) 6.46%, CNS(=O)(=O)c1cn(CC(=O)Nc2ccc(C)c(N(C)C)c2)cc1S(=O)(=O)NC -0.32%, Cc1ccc2c(=O)c(C(=O)c3ccc(F)cc3)cn(CC(=O)NCc3ccccc3Cl)c2n1 -19.7%, Cc1ccc(-c2nn(CC(=O)NC3CCCCC3)c3c2cnc2ccccc23)cc1 6.86%, Cc1ccc(Cl)cc1N1CCN(C(=O)c2cccn2-c2nnc(N3CCCC3)s2)CC1 2.8%, CCn1ccc2cc(S(=O)(=O)N3CCCN(C(=O)Nc4ccc(C)c(F)c4)CC3)ccc21 -0.505%, COc1ccc(CNC(=O)C(C)N2Cc3ccccc3C2=O)cc1 (centres undefined) -1.6%, CCCc1ccc(OCC(=O)Nc2sc3c(c2C(=O)OC)CCCCC3)cc1 2.16%, CC(C)CC(=O)NCC1(N(C)C)CCCCC1 1.78%, CCCCOc1ccccc1C(=O)Nc1nonc1-c1ccccc1 -22%, Cc1cccc(N(C)c2nc3ccc(C)cc3n3cnnc23)c1 -0.282%, Cc1nc(-c2ccccc2)sc1CCNC(=O)C(=O)Nc1ccc2c(c1)OCCO2 -0.573%, Cc1ccc(CNC(=O)CCCN2C(=O)c3cccnc3Oc3ccc(Cl)cc32)cc1 -0.963%, O=C(Nc1nnc(S(=O)(=O)N2CCCCCC2)s1)c1ccccc1Cl -7.48%, Cc1cccc(NC(=O)C(Cc2ccccc2)n2cccc2)c1C (centres undefined) 1.81%, CCOc1ccc(NC(=O)c2cc3c(s2)-c2ccccc2OC3)cc1 -3.03%, Cc1cccc(-c2nc(CSCC(=O)N3CCN(c4ccccc4)CC3)c(C)o2)c1 -10.7%, COc1ccccc1N1CCN(c2ccc(-c3nc(-c4ccccc4C)no3)cc2[N+](=O)[O-])CC1 6.88%, COc1ccccc1Cc1nc2ccccc2nc1SCC(=O)N1CCc2ccccc21 0.831%, CCOC(=O)c1ccc(NC(=O)CSc2nccn2-c2ccc(OCC)cc2)cc1 -16.8%, CCC(C)NC(=O)C1CCN(C(=O)c2ccc(-n3ccc4ccccc43)s2)CC1 (centres undefined) -6.73%, COc1ccccc1CCNC(=O)Cc1c(C)c2c(cc(C)c3c(C)c(C)oc32)oc1=O -3.5%, FC(F)(F)c1cccc(-c2nnn3c2nc(NC2CCCCC2)c2ccccc23)c1 -32.9%, Cc1cccc(N2CCN(C(=O)Cn3cnc4sc(C)c(S(=O)(=O)N5CCN(c6ncccn6)CC5)c4c3=O)CC2C)c1 (centres undefined) -15%, COc1cc([N+](=O)[O-])ccc1NC(=O)N1CCN(c2cc(-c3noc(C)n3)ccc2C)CC1 1.13%, CCOc1ccc(CCNC(=O)c2cc(=O)[nH]c3ccc(S(=O)(=O)N4CCCCC4)cc23)cc1OCC 12.6%, CCOc1ccccc1CNC(=O)C1CCN(S(=O)(=O)c2c(C)noc2/C=C/c2ccc(C)cc2)CC1 -1.74%, COc1cccc(NC(=O)C(=O)NCCc2csc(-c3ccc(C(F)(F)F)cc3)n2)c1 -2.26%, Cc1ccccc1OCC(=O)Nc1ccc(OCc2cc(=O)n3ccsc3n2)cc1 1.65%, CCOC(=O)c1cccc(NC(=O)N2CCC(CN3CCc4ccccc4C3)CC2)c1 -2.29%, FC(F)(F)c1cccc(N2CCN(Cc3nnc(-c4ccc5c(c4)OCO5)o3)CC2)c1 4.31%, O=C(Cc1ccc(F)cc1)NCc1nc2cccnc2n1Cc1ccc(F)cc1 -2.01%, CCOc1ccc(S(=O)(=O)c2c[nH]c3ccccc3c2=O)cc1 5.39%, COc1ccc(CCNC(=O)C2CCN(c3ncnc4c3nc3n4CCCCC3)CC2)c(OC)c1 -3.49%, Cc1ccccc1C(=O)Nc1ccc2nc(Nc3cccc(C(F)(F)F)c3)cc(C)c2c1 -29.4%, CC1CCCN(Cc2nc3c(c(=O)n(C)c(=O)n3C)n2Cc2ccc(Cl)cc2Cl)C1 (centres undefined) -3.74%, NS(=O)(=O)c1ccc(CCNC(=O)c2ccc3nc(Cc4ccccc4)oc3c2)cc1 5.79%, CC(C)(C)C1CCc2c(sc(NC(=O)CCC(=O)O)c2C(=O)Nc2ccccc2C(F)(F)F)C1 (centres undefined) -0.0356%, CCCc1cc(=O)oc2cc(C)c3c(-c4cccc(OC)c4)coc3c12 0.607%, CCOC(=O)c1cccc(NC(=O)N2CC(CC)Sc3ccccc32)c1 (centres undefined) 0.13%, COc1cccc(-c2nc(SCC(=O)NCC3CCCO3)c(-c3ccc(F)cc3)[nH]2)c1 (centres undefined) -0.806%, COc1cccc(CNC(=O)c2ccc(-c3nc(CS(=O)(=O)c4ccccc4)c(C)o3)cc2)c1 -10.9%, CN(C)CCNC(=O)CN1C(=O)CCn2nc(-c3cn(C)c4ccccc34)cc21 -4.27%, CCc1ccc(NC(=O)Cn2ncc3c(C)n(Cc4cccc(Cl)c4)c(C)c3c2=O)cc1 -1.76%, Cc1cc(C)cc(-n2nnc(-c3nsc(NC(=O)c4ccccc4Cl)n3)c2C)c1 0.298%, O=C(Nc1cccc(C(=O)N2CCN(c3ccccc3F)CC2)c1)c1nsc2ccccc12 0.125%, COC(=O)c1cc2sccc2n1Cc1nc(-c2cccc(Br)c2)oc1C -14.6%, CC(=O)Nc1ccc(S(=O)(=O)NCc2ccc(C(=O)NCc3ccc(Cl)cc3)cc2)cc1 -13%, COc1ccc(CCNC(=O)c2cnc3sc(N4CCC(C)CC4)nn3c2=O)cc1OC 5.59%, CCC1CCCCN1C(=O)CSc1n[nH]c(-c2ccccc2Cl)n1 (centres undefined) 5.22%, CCN(c1ccc(OC)cc1)S(=O)(=O)c1nnc(NC(=O)c2ccccc2C)s1 -8.52%, CCOc1ccc(NC(=O)Cn2c(=O)n(CC3CCCO3)c(=O)c3ccccc32)cc1 (centres undefined) -3.63%, CCc1ccc(-n2nc(C)c3c(C)cc(=O)n(CC(=O)NCc4ccc(C)cc4)c32)cc1 -5.15%, CCc1ccc(NC(=O)CSc2nc(C)cc(COC)c2C#N)cc1 4.23%, CC(C)CCNc1nc2c(S(=O)(=O)c3ccc(Br)cc3)nnn2c2ccsc12 -3.43%, CCc1cc2c(cc3c(=O)n(CC(=O)N4CCN(c5cc(Cl)ccc5C)CC4)nc(CC)n32)s1 -10.6%, CCCCCCc1cc2cc(-c3nnc(-c4ccc(C)cc4)o3)c(=O)oc2cc1O 9.46%, O=C(NCc1ccccc1)C1CCN(C(=O)c2cnn(-c3ccccc3)c2-n2cccc2)CC1 2.24%, C=Cc1ccc(Cn2c(=O)n(-c3ccc(C)cc3)c(=O)c3c2c2cc(OC)ccc2n3C)cc1 1.83%, CCOc1ccc2nc(N3CCCC(C(=O)NCc4ccccc4Cl)C3)sc2c1 (centres undefined) -25.8%, COc1ccc2cc(C(=O)NCc3ccc4c(c3)CCN4C(=O)c3ccc(C)cc3)[nH]c2c1 -1.11%, Cc1ccc(C)c(Cn2c(C)c(CNCc3ccc(F)cc3)c(C(=O)O)c2C)c1 0.885%, COc1ccc(CCNC(=O)CCCCCn2c(=O)[nH]c3cc(OC)c(OC)cc3c2=O)cc1OC -16.2%, CC1=C(C(=O)Nc2ccc(C)cc2C)C(c2cccn2C)n2ncnc2N1 (centres undefined) -0.512%, CC(=O)Nc1nnc(SCc2cc(=O)c3cccc(C)c3[nH]2)s1 0.0901%, Cc1ccc(C)c(N2CCN(c3nc4ccccc4c4nc(-c5cccnc5)nn34)CC2)c1 -7.66%, CCOC(=O)c1cccc(NC(c2nnc(-c3ccccc3)o2)c2ccccc2F)c1 (centres undefined) -8.16%, CC(C)C(=O)Nc1cccc(NC2=NS(=O)(=O)c3ccccc32)c1 0.065%, CCc1ccc(C2=CC(c3cccc(Br)c3)n3nnnc3N2)cc1 (centres undefined) 0.208%
